The record followed here is the RNAGym collection of RNA variant scans (doi:10.1093/nar/gkz1192).

The source gives no read counts; variants with many changes may rest on few reads.

The labels stand for the following.
B1: CPEB3 Ribozyme (parent)
chain: UAACAGGGGGCCACAGCAGAAGCGUUCACGUCGCAGCCCCUGUCAGAUUCUGGUGAAUCUGCGAAUUCUGCUGUAUAUCUC

The variants in the series derive from B1. The series can be described thus: self-cleavage, relative activity (ratio to wild type); higher = more cleavage; in vitro, sequencing. In a few lines: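 After error-prone PCR and barcoding, CPEB3 ribozyme mutant libraries were transcribed with T7 RNA polymerase at 37°C for 5 hours, then given 15 min with DNase I before an EDTA stop, and they cleaved during both steps. Reverse transcription with template switching preceded Illumina sequencing. Relative activity divides a variant's cleaved/total read fraction by the unmutated ribozyme's. At least 5 reads were required per variant, and three batches were averaged.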
With UAACAGGGGGCCACAGCAUAGGCGUUCACGUCGCAGCCCCUGUCGGAUUCUGGUGAAUCUGCGAAUUCAGCUGUAUAUCCC, the self-cleavage was 0.08.

UAACAGGGGGCCACAGCAUAAGCGUUCACGUCGCUGCCCCUGUCAGCCUCUGGUGAAUCUGCGAAUUCUGCUGUAUAUCUC: the self-cleavage amounted to 0.13.

As for UAACAGGGGGCCACAGCAUAAGUGUUCACGUCGCAGCCCCUGUCAGAUUCUGGUGUAUCUGCGAAUUUUGCUGUAUGUCUC, the self-cleavage is 0.13.

As to UAACAGGGGGCCACAGCAGCAGCGUCCACGUCGCAGCCCCUGUCGGAUUCUGGUGAAUCUGCGAAUUCUGCUGUAUAUCUC, the self-cleavage worked out at 0.29.

With UAACAGGGGGCCACAGCAGCGGCGAUCGCGUCGCUGCCCCUGUCAGAUUCAGGUGAAUCUGCGAAUUCUGCUGUAUAUCUC, the self-cleavage was 0.04.

For UAACAGGGGGCCACAGCAUAAGCGUUCACGUCGCAGCCCCUGUCAGAUUCUGGUGUAUCUGCGAAUUCUGCUGUAUACCUC, the self-cleavage amounted to 0.17.

Consider UAACAGGGGGCCACAGCAAAAGCGUACACGUCGCAACCCCUGUCGGAUUCUGGCGAAUCUGCGAAUUCUGCUGUAUAUCUC, for which the self-cleavage stood at 0.14.

Turning to UAACAGGGGGCCACAGCAUAAGCGUUCACGUCGCAGCCCCUGUCAGAUUAUGGUGUAUCUGCGGAUUCCGCUGUAUAUCUC, the self-cleavage is 0.1.

Turning to UAACAGGGGGCCACAGCAGCAGCGUCCACGUCGCAGCCCCUGUCAGAUUCAGGUGAAUCUGCGAGUUCUGCUGUAUAUCUC, the self-cleavage was found to be 0.04.

Turning to UAACAGGGGGCCACAGCAAAAGCGUUGACGUCGCAGCCCCUGUCAGAUUCUGGUGAAUCUGCGAAUUCAGCUGUAUAUCUC, the self-cleavage was 0.08.

Turning to UAACAGGGGGCCACAGCAUAAGCGCUCACGUCGCAGCCCCUGUCAGACUCCGGUGAAUCUGCGAAUUCUGCUGUAUAUCCC, the self-cleavage came out at 0.1.

Regarding UAACAGGGGGCCACAGCAGCAGCGUUCACGUCGCAGCCCCCGACGGAUUCUGGUGAAUAUGCGAAUUCUGCCGUAUAUCUC, the self-cleavage was 0.05.

For the variant UAACAGGGGGCCACAGCACAAGCGCUCACGUCGCAGCCCCUGUCAGAUUCUGGUGGAUCUGCGAAUUCUGCUGUAUAUCUC, the self-cleavage worked out at 0.07.

Turning to UAACAGGGGGCCACAGCAUAAGUGUUCACGUCGCGGCCCCUGUCAGAUUCUGGUGAAUUUGCGAAUUCUGCUGUAUAUCUC, the self-cleavage was 0.07.

On to UAACAGGGGGCCACAGCAUGAGCGUCCACGUCGCAGCCCCUGUCAGAUUCCGGUGAAUCUGCGAAUUCUGCAGUAUGUCCC, for which the self-cleavage is 0.07.

For UAACAGGGGGCCACAGCAAAAGCGUUCACGUCACAGCCCCUGUCAGAUUCUGGUGAGUCUGCGAUCUCUGCUGUAUAUCCC, the self-cleavage was 0.07.

On to UAACAGGGGGCCACAGCAUAAGCGUUCACGUCGCAGCCCCUGUCAGAUUCUGGUGAAUCUGCGGAUUCUGCUGUAUACCUC, for which the self-cleavage came to 0.17.

With UAACAGGGGGCCACAGCACGAGCGUUCACGUCGCAGCCCCUGUCAGAUUCUGGUGAAUCUGCAAAUUCUGCUGUAUACCCC, the self-cleavage is 0.23.

Consider UAACAGGGGGCCACAGCACAAGCGUACACGUCGCAGUCCCUGUCAGAUUCUGGUGAAUCUGCGAAUUCUGCUGUAUAUCUC, for which the self-cleavage came out at 0.1.

Consider UAACAGGGGGCCACAGCACAAGCGUUCUCGUCGCAGCCCCUGUUAGAUUCUGGUGAAUCUGCGAAUUCUGCUGUAUAUCUC, for which the self-cleavage is 0.14.

UAACAGGGGGCCACAGCAUAAGCGUUCACGCCGCAGCCCCUGUCAGAUCCUGGUGAAUCUGCGAAUUCUGCUGAAUAUCUC: the self-cleavage was determined as 0.18.

On to UAACAGGGGGCCACAGCAUAAGCGUUCACGUCGCAGCCCCUGUCAGAUUCUGGUGAAUCUGCGAAUUCUGCCGUAUAUCUA, for which the self-cleavage turned out to be 0.47.

Consider UAACAGGGGGCCACAGCAGCAGCGUUCACGUCGCAGCCCCUGUCAGAUUCUGGUGUAUCUGUGAAUUCUGCUGUAUAUCUC, for which the self-cleavage is 0.1.

As to UAACAGGGGGCCACAGCAGCAGCGUUCAUGUCGCAGCCCCUGUCAGAUUCUGGUGAAUCUGCGGGUUCUGCUGUACACCUC, the self-cleavage came out at 0.03.

With UAACAGGGGGCCACAGCAUAAGCGCUCACGUCGCAGCCCCUGUCAGAUCCCGGUGAAUCCGCGAAUUCUGCUGAAUAUCUC, the self-cleavage amounted to 0.07.

As to UAACAGGGGGCCACAGCACAAGCGUUCACGUCGCAGCCCCUGUCAGAUUCUGGUGGGUCUGCGAAUUCUGCUGUAUAUCUC, the self-cleavage worked out at 0.16.

In the case of UAACAGGGGGCCACAGCAGCAGCGUUCACGUCGCAGCCCCUGUCAGAUUCUGGUGAAUCAGUGAAUUCUGCUGUAUAACUC, the self-cleavage amounted to 0.04.

Turning to UAACAGGGGGCCACAGCAGCAGCGUUCACGCCGCAGCCCCUGUCAGAUACUGGUGAAUCUGCGAAUUCCGCUGUAUAUCUC, the self-cleavage is 0.21.

As to UAACAGGGGGCCACAGCAUAAGCGUUCACGUCGUAGCCCCAGUCAGAUUCUGGUGAAUCUGCGAACUCUGCUUUAUACCUC, the self-cleavage was 0.03.

In the case of UAACAGGGGGCCACAGCAGGGGCGUUCACGUCGCGGCCCCUGUCGGACUCUGGUGAAUCUGCGAAUUCUGCUGUAUAUCUC, the self-cleavage was 0.05.

Consider UAACAGGGGGCCACAGCAUAAGCGUUCACGUCGCUGCCCCUGUCAGAUUCUGGUGAAUCCGCGAAUUCUGCUGUAUAUCUC, for which the self-cleavage amounted to 0.11.

As to UAACAGGGGGCCACAGCAGGGGCGUUCGCGUCGCAGCCCCUGCCAGAUUCUGGUGAAUCUGCGAAUUCUGCAGUAUAUCUC, the self-cleavage is 0.2.

In the case of UAACAGGGGGCCACAGCAAAAGCGCGCACGUCGCAGCCCCUGUCAGAUUCUGGUGAAUCUGCGAAUUCUGCUGUAUGUCUC, the self-cleavage was determined as 0.12.

In the case of UAACAGGGGGCCACAGCAGCAGCGUUCACGUCGCAGCCCCAGUCAGAUUCUGGUGAAUCUGCGAAUCCUGCUGUAUAACUC, the self-cleavage came to 0.06.

Take UAACAGGGGGCCACAGCAAAAGCGUUCACGUCGCAGCCCCUGUCAGAUUCUGCUGAAUCUGCGAGUUCUGCUGUAUAUCCC: the self-cleavage was 0.11.

With UAACAGGGGGCCACAGCAGCAGCGUUCACGUCGCAGCCCCUGUCUGAUUCUGGUGAAUCUGCGAAUUCUGCUGUAAAUCUC, the self-cleavage was found to be 0.54.

For the variant UAACAGGGGGCCACAGCAUGAGCGUUCACGUCGCAGCCCGUGUCAGAUUCUGGGGAAUCUGCGAAUUCUGCUGUAUAUCUC, the self-cleavage was found to be 0.08.

Regarding UAACAGGGGGCCACAGCAGCAGCGUUCACGUCGCAGCCCCAGUCAGACUCUGGUGAAUCUGCGAAUUCUGCUGUAUAUCUC, the self-cleavage was found to be 0.18.

On to UAACAGGGGGCCACAGCAUAAGCGUCCACGUCGCAGCCCCUGUCAGACUCUGGUGAAUCUGCGAAUUCUGCUGUAUAUCCC, for which the self-cleavage came to 0.21.

On to UAACAGGGGGCCACAGCAAAAGCGUUCACGUCGCAGCCCCUGUCAGAUUCCGGUGAAUCUGCGAAUUCUGCCGUAUAUCUC, for which the self-cleavage was 0.27.

For UAACAGGGGGCCACAGCACAAGCGUUCACGACGCGGCCCCAGUCAGAUUCUGGUGAAUCUGCGAAUUCUGCAGUAUAUCCC, the self-cleavage was 0.06.

Turning to UAACAGGGGGCCACAGCAGCGGCGUUCACGUCGCAGCCCCCGUCAGAUUCUGGUGAAUCUGCGAAUUCUGCUGUAUGUCUC, the self-cleavage turned out to be 0.12.

Regarding UAACAGGGGGCCACAGCAGCAGCGUCCACGUCGCAGCCCCUGUCAGAUUCCGGUGAAUCUGCGAAUUCUGCUGUAUAUCUC, the self-cleavage was determined as 0.12.

Regarding UAACAGGGGGCCACAGCACAAGCGUUCACGUCGCAGCCCCUGCCAGAUACUUGUGAAUCUGCGAGUUCCGCCGUAUAUCUC, the self-cleavage was 0.1.

Consider UAACAGGGGGCCACAGCAGCAGCGUUCACGUCGCAGCCCCUGUCAGAUUCUGGUGUAUCUGCGAAUUCAGCUGUAUUUCUC, for which the self-cleavage came out at 0.19.

Regarding UAACAGGGGGCCACAGCAGCAGCCUUCACGUUGCAGCCCCUGUCAGAUUCAGGUGAAUCUGCGAAUUCUGCUGUAUAUCUC, the self-cleavage was 0.15.

For the variant UAACAGGGGGCCACAGCAUAAGCGUUCACGUCGCAGCCCCUGUCAGGCUCUGGUGAAUCUGCGAAUUCAGCUGUAUAUCUC, the self-cleavage was determined as 0.19.

As for UAACAGGGGGCCACAGCAGCCGCGUUCACGCCGCAGCCCCUGUCAGAUUCUGGUGAAUCUGCGAAUCCUGCUGUAUAUCUC, the self-cleavage was 0.3.

On to UAACAGGGGGCCACAGCACAAGCGUUCACGUCGCAGCCCCUGUCAGAUCCUGGUGAAACUGCGAAUUCUGCUGUAUAUCUC, for which the self-cleavage was 0.

For UAACAGGGGGCCACAGCAAAAGCGUUCACGUCGCAGCCGCUGUCAGAUUCUGGUGAGUCUGCGAAUUCUGCUGUAUACCUC, the self-cleavage was 0.04.

With UAACAGGGGGCCACAGCACAAGCGUUCUCGUCGCAGCCCCUGCCAGAUUCCGGUGAAUCAGCGUAUUCUGCUGGAUAUCUC, the self-cleavage worked out at 0.04.

With UAACAGGGGGCCACAGCACAAGCGUUCACGUCGCAGCCCCUGUCAGACUCCGGUGAAUCUGCGAACCCUGCUGUAUAUCUC, the self-cleavage turned out to be 0.07.

As to UAACAGGGGGCCACAGCAAAAGCGUUCACGUCGCAGCCCCUGUCAUAUUCUGGUGAAUCUGCGAAUUUUGCUGUAUAUCUC, the self-cleavage was 0.37.

On to UAACAGGGGGCCACAGCAGCAGCGUUCACGUCGCAGCCUCUGUCAGAUUCUGGUGAAUCUGCGAAUUCUGCCGCAUACCUC, for which the self-cleavage was 0.35.

Turning to UAACAGGGGGCCACAGCAGCAGCGUUCACAUAGCAGCCCCUGUCAGAUUCUGGUGAAUCUGCGAAUUCUGCUGUAUUUCUC, the self-cleavage was 0.21.

On to UAACAGGGGGCCACAGCAUAAGCGUUCACGUCGCAGCCCCUGUCAGGUUCUGGUGAAUCUGCGAAUUCUGCCGUAUAUCUC, for which the self-cleavage was determined as 0.12.

As to UAACAGGGGGCCACAGCAUAUGCGUUCACGUCGCAGCCCCCGUCAGAUUCUGGUGAAUCUGCGAAUCCUGCUACAUAUCUC, the self-cleavage was found to be 0.06.

As for UAACAGGGGGCCACAGCAGCAGCGUUCACGUCGCGGCCCCUGUCGGAUUCUGGUGAAUCUGAGAAUUCUGCUGUAUAUCUC, the self-cleavage was found to be 0.61.

Consider UAACAGGGGGCCACAGCAUAAGCGUUUACGUCGCUGCCCCUGUCAGAUUCUGGUGAAUCUGCGAAUUCUGCUGUAUAUCUC, for which the self-cleavage was 0.15.

As to UAACAGGGGGCCACAGCAUAGGCGUACACGUCGCAGCCCCUGUCAGAUUCUGGUGAAUCUGCGAAUUCAGCUGUAUAUCUC, the self-cleavage stood at 0.23.

Consider UAACAGGGGGCCACAGCACAAGCGUUCACGACGCAGCCCCUGUCAGAUUCUGGUGAAUCUGCGAAUCCUGCUGUAUAUCUC, for which the self-cleavage is 0.08.

Take UAACAGGGGGCCACAGCAUAAGCGUUCACGUCGCAGCCCCAGUCAGAUUCUGGUGAAUCUGCAAAUUCUGCUGUAUAUCUC: the self-cleavage is 0.17.

UAACAGGGGGCCACAGCAGCAGCGUUCACGUCGCAGCCCCUGUCAGAUUCUGGUGAAUCUGCGGGUUCUGCUGUAUAACUC: the self-cleavage was 0.07.

With UAACAGGGGGCCACAGCAUAAGCGUUCACGUCGCAGCCCCUGUCAGAUUUUGGUGAAUCUGCGAAUCCUCCUGUAUACCUC, the self-cleavage was found to be 0.14.

Consider UAACAGGGGGCCACAGCAGGGGCGUUCGCGUCGCAGCCCCUGUCAGAUUCUGGUGAAUCCGCGAAUUCUGCCGUAUAUCUC, for which the self-cleavage came to 0.07.

As for UAACAGGGGGCCACAGCAGCAGCAUUCACGUCGCAGCCCCUGUCAGGUUUAGGUGAAUCUGCGAAUUCUGCCGUAUAUCUC, the self-cleavage is 0.17.

As for UAACAGGGGGCCACAGCAUAAGCGUUUACGUCGCCGCCCCUGUCAGAUUCUGGUGUAUCUGCGAGUUCAGCUGUAUAUCUC, the self-cleavage was 0.06.

UAACAGGGGGCCACAGCAUAAGCGUUCGCGUCGCAGCCCCCGUCGGAUUCUGGUGAAUCUGCGAGUUCUGCUGUAUAGCUC: the self-cleavage amounted to 0.03.
